These are yes or no findings as the source states them, for the method shown. Some results given as binding are weak or reduced against the parent protein; the word gives no strength. Sequences can lack the tags named with a protein.
What was measured:
Experiment in all cases: two-hybrid; NUA or ESD4 on the GAL4 AD (pGADT7), SnRK2s on the GAL4 BD (pGBKT7), co-transformed into S. cerevisiae AH109; growth on -Leu/-Trp/-His (with 3-AT) or -Leu/-Trp/-His/-Ade
[1] = molecular target: T1, SnRK2.7 fused to the GAL4 BD (Arabidopsis thaliana) (UniProt Q9SMQ4)
T1 sequence: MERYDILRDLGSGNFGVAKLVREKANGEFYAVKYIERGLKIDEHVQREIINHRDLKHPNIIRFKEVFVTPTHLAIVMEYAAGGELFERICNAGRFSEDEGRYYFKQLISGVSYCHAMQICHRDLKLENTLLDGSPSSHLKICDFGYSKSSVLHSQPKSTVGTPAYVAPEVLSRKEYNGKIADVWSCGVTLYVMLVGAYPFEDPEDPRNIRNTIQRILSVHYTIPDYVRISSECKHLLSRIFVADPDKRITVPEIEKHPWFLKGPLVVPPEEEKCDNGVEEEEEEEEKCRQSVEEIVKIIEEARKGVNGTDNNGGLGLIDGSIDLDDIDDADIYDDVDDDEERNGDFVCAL

Sequences of proteins named here, by UniProt entry; tags and fusion partners are left off.
UniProt A4GSN8: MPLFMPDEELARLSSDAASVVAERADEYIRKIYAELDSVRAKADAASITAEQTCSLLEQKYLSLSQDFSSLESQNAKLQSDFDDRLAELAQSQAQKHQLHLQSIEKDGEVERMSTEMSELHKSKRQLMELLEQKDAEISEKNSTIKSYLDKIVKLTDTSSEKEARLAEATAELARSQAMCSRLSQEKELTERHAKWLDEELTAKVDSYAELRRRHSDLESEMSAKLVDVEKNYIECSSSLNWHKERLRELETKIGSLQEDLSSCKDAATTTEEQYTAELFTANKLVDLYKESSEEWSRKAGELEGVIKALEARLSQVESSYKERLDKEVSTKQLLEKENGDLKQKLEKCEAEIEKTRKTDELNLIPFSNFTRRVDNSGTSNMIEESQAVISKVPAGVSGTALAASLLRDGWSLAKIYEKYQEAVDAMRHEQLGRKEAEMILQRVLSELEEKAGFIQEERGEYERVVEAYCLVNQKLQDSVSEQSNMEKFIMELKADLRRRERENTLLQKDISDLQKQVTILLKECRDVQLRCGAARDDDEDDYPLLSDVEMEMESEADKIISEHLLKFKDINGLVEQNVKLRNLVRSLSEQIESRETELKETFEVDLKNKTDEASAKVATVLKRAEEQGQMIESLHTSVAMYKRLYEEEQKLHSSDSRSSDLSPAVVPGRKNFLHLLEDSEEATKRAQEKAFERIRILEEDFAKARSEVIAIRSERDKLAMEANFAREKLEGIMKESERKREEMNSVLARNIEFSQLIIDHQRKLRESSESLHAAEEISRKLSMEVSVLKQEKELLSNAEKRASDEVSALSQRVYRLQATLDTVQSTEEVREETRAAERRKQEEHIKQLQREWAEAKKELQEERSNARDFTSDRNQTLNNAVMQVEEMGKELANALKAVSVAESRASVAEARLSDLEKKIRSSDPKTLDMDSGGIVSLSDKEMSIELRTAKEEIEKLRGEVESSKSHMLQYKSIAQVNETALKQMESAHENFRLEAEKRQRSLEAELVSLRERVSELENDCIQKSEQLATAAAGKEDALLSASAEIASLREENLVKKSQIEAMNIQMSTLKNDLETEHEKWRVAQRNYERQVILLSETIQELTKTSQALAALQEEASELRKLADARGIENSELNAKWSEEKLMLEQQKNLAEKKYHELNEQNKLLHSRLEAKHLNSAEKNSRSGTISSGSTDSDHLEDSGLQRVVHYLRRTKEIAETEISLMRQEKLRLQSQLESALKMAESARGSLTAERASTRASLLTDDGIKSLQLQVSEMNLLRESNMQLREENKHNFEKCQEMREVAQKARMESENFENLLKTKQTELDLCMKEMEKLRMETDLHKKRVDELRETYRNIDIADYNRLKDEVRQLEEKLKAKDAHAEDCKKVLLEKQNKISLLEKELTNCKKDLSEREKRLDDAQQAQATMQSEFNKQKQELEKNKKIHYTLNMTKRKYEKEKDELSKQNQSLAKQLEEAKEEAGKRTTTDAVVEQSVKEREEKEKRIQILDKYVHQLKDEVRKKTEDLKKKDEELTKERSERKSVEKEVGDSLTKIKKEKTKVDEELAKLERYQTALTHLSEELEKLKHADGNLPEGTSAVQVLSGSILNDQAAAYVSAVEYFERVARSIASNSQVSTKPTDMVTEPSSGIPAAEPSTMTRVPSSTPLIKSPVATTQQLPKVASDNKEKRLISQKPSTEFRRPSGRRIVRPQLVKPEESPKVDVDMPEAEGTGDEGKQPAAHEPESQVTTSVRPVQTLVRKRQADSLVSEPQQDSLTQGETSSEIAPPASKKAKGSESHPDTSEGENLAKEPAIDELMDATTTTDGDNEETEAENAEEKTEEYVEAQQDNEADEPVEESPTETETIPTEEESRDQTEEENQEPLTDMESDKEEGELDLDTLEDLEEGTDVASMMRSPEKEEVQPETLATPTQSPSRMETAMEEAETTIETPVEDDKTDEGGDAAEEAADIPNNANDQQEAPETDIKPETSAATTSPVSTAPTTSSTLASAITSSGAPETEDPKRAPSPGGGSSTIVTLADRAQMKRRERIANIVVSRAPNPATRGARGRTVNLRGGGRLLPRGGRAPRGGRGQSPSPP

[2] = molecular target: T2, SnRK2.4 fused to the GAL4 BD (Arabidopsis thaliana) (UniProt P43291)
T2 sequence: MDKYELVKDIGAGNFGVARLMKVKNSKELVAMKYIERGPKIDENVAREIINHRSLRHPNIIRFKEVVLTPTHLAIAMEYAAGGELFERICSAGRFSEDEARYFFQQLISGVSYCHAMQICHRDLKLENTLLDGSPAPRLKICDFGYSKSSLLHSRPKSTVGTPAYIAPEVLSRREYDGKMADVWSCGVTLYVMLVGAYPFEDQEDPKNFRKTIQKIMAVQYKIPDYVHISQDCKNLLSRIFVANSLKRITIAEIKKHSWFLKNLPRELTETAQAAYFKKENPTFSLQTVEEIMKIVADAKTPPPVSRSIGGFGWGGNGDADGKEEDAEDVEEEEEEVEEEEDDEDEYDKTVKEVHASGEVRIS

[3] = molecular target: T3, SnRK2.6/Open Stomata 1 (OST1) fused to the GAL4 BD (Arabidopsis thaliana) (UniProt Q940H6)
T3 sequence: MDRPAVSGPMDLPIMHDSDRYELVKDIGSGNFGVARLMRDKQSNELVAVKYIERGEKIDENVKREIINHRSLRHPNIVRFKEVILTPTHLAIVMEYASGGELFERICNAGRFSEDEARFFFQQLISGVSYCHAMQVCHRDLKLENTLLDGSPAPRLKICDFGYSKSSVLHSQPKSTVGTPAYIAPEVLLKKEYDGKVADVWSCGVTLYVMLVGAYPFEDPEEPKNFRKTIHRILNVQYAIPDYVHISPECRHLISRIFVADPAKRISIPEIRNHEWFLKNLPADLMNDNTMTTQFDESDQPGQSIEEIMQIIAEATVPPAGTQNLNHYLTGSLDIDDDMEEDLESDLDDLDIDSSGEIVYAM

[4] = molecular target: T4, SnRK2.10 fused to the GAL4 BD (Arabidopsis thaliana) (UniProt Q9C958)
T4 sequence: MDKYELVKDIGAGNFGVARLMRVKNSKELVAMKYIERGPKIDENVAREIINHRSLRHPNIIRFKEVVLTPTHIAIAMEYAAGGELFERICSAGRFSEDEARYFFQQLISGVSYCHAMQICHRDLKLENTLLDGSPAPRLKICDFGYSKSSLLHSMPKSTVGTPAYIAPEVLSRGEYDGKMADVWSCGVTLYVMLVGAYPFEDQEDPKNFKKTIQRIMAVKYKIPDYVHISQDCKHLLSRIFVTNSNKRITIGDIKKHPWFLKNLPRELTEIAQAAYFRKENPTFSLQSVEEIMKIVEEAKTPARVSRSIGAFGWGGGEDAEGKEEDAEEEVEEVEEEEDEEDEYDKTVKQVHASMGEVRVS

Substance: NUCLEAR PORE ANCHOR (NUA) fused to the GAL4 AD (from UniProt A4GSN8 1-2093)
- binding [1]: no binding
- binding [2]: no binding
- binding [3]: binds
- binding [4]: no binding
